Test results as given in US20250333542A1 (Hoffmann-La Roche, published 2025).
Each block holds one binder with its values, some of them ahead of it.

Tests used:
[1] = target: T1, Fc (kih)-IFNGR1/2 heterodimer (P1AF8126) (UniProt P15260 18-245; P38484 28-247, limits assumed); test: SPR, compound immobilised, Fc(kih)-IFNGR1/2 heterodimer as analyte; apparent affinity
T1 construct: Used as the soluble analyte in SPR; also called Fc (kih)-IFNGR1/R2 heterodimer; IFNGR1/R2; not shown: Fc (kih) chain
T1 sequence (looked up) 1: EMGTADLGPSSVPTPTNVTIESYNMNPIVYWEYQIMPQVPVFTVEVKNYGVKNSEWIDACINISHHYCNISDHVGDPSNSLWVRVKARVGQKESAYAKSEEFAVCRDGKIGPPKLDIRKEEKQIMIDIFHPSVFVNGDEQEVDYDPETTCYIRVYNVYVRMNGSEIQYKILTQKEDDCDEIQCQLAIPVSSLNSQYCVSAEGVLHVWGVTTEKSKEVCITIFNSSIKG
T1 sequence (looked up) 2: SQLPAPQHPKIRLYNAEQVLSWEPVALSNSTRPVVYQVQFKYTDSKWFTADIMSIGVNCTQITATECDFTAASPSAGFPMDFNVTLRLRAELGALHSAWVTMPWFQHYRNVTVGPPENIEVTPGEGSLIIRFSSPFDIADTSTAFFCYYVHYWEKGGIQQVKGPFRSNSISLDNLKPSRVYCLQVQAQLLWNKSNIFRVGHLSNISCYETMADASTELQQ
Procedure: (§1) The binding behaviour of IFNG variants towards IFNGR1 and IFNGR1/2 was assessed by surface plasmon resonance (SPR). SPR experiments were performed on a Biacore 8K device at 25° C. with HBS-EP as running buffer (0.01 M HEPES pH 7.4, 0.15 M NaCl, 3 mM EDTA, 0.005% Surfactant P20, Biacore, Freiburg/Germany). […] IFNG mutation series compounds were immobilised at a concentration of 25 nM, 80 s contact time and 10 μL/min. Immobilisation levels up to 450 resonance units (RU) were used. Subsequently, decreasing concentrations (800-3.13 nM) of Fc (kih)-IFNGR1 monomer or Fc (kih)-IFNGR1/2 heterodimer were injected as a second analyte with a flow rate of 30 μL/min over 120 seconds and dissociation was monitored for 500 s. Bulk refractive index differences were corrected for by subtracting the response obtained in a reference flow cell, where no protein was immobilised. The affinity constants were derived from the rate constants by fitting to a 1:1 Langmuir binding.
(§2) To measure binding affinities, compounds of the mutation series were immobilised in the flow cell. As a second analyte Fc (kih)-IFNGR1 monomer or Fc (kih)-IFNGR1/R2 heterodimer were passed through the flow cell and binding affinities (KD) were calculated based on observed association and dissociation constants. Already single point mutations reduced the apparent binding affinities towards the receptors compared to the compound with C-terminal KRKRP.

[2] = target: T2, Fc (kih)-IFNGR1 monomer (P1AF7104) (UniProt P15260 18-245); test: SPR, compound immobilised, Fc(kih)-IFNGR1 monomer as analyte; apparent affinity
T2 construct: Used as the soluble analyte in SPR; not shown: Fc (kih) part
T2 sequence (P15260 whole entry, species assumed, looked up): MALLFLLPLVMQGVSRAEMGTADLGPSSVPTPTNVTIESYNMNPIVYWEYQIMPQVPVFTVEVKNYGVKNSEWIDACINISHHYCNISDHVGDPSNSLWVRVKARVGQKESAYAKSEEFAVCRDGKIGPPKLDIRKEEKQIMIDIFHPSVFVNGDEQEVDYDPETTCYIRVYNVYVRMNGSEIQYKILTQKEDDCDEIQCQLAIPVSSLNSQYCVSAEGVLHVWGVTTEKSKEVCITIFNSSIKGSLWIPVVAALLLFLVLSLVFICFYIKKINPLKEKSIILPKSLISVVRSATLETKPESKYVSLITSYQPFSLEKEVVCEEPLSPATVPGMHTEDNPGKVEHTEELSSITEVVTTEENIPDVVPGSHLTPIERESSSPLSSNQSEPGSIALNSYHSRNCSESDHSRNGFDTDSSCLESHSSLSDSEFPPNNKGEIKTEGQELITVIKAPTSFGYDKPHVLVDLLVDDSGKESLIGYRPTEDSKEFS
Procedure: as §1, §2

B1: P1AF9464 (anti-FAP 4B9 IgG-IFNG, C-terminus AKTGSRKRP) (other)
heavy: EVQLLESGGGLVQPGGSLRLSCAASGFTFSSYAMSWVRQAPGKGLEWVSAIIGSGASTYYADSVKGRFTISRDNSKNTLYLQMNSLRAEDTAVYYCAKGWFGGFNYWGQGTLVTVSSASTKGPSVFPLAPSSKSTSGGTAALGCLVKDYFPEPVTVSWNSGALTSGVHTFPAVLQSSGLYSLSSVVTVPSSSLGTQTYICNVNHKPSNTKVDKKV[human IgG1 Fc with changes skipped]GGGGSGGGGSGGGGSQDPYVKEAENLKKYFNAGHSDVADNGTLFLGILKNWKEESDRKIMQSQIVSFYFKLFKNFKDDQSIQKSVETIKEDMNVKFFNSNKKKRDDFEKLTNYSVTDLNVQRKAIHELIQVMAELSPAAKTGSRKRP
light: EIVLTQSPGTLSLSPGERATLSCRASQSVTSSYLAWYQQKPGQAPRLLINVGSRRATGIPDRFSGSGSGTDFTLTISRLEPEDFAVYYCQQGIMLPPTFGQGTKVEIKRTVAAPSVFIFPPSDEQLKSGTASVVCLLNNFYPREAKVQWKVDNALQSGNSQESVTEQDSKDSTYSLSSTLTLSKADYEKHKVYACEVTHQGLSSPVTKSFNRGEC
notes: Antibody-cytokine fusion, IgG1 P329G LALA, IFNG variant on the heavy chain C-terminus via (G4S)3; S in position 1 of KRKR; also called PIAF9464
Kd [1]: 459 nM | Kd [2]: 614 nM

B3: P1AF9488 (anti-FAP 4B9 IgG-IFNG, C-terminus AKTGKREEP) (other)
heavy: EVQLLESGGGLVQPGGSLRLSCAASGFTFSSYAMSWVRQAPGKGLEWVSAIIGSGASTYYADSVKGRFTISRDNSKNTLYLQMNSLRAEDTAVYYCAKGWFGGFNYWGQGTLVTVSSASTKGPSVFPLAPSSKSTSGGTAALGCLVKDYFPEPVTVSWNSGALTSGVHTFPAVLQSSGLYSLSSVVTVPSSSLGTQTYICNVNHKPSNTKVDKKV[human IgG1 Fc with changes skipped]GGGGSGGGGSGGGGSQDPYVKEAENLKKYFNAGHSDVADNGTLFLGILKNWKEESDRKIMQSQIVSFYFKLFKNFKDDQSIQKSVETIKEDMNVKFFNSNKKKRDDFEKLTNYSVTDLNVQRKAIHELIQVMAELSPAAKTGKREEP
light: B1 light
notes: Antibody-cytokine fusion, IgG1 P329G LALA, (G4S)3 linker; E in positions 3 and 4 of KRKR
Kd [1]: 2870 nM | Kd [2]: 6220 nM

B4: P1AF9489 (anti-FAP 4B9 IgG-IFNG, C-terminus AKTGERERP) (other)
heavy: EVQLLESGGGLVQPGGSLRLSCAASGFTFSSYAMSWVRQAPGKGLEWVSAIIGSGASTYYADSVKGRFTISRDNSKNTLYLQMNSLRAEDTAVYYCAKGWFGGFNYWGQGTLVTVSSASTKGPSVFPLAPSSKSTSGGTAALGCLVKDYFPEPVTVSWNSGALTSGVHTFPAVLQSSGLYSLSSVVTVPSSSLGTQTYICNVNHKPSNTKVDKKV[human IgG1 Fc with changes skipped]GGGGSGGGGSGGGGSQDPYVKEAENLKKYFNAGHSDVADNGTLFLGILKNWKEESDRKIMQSQIVSFYFKLFKNFKDDQSIQKSVETIKEDMNVKFFNSNKKKRDDFEKLTNYSVTDLNVQRKAIHELIQVMAELSPAAKTGERERP
light: B1 light
notes: Antibody-cytokine fusion, IgG1 P329G LALA, (G4S)3 linker; E in positions 1 and 3 of KRKR
Kd [1]: 5960 nM | Kd [2]: 10700 nM

Other lines, results leading:

Kd [1]: 167 nM | Kd [2]: 475 nM
B2: P1AG1310 (FAP 4B9 IgG - linker 1 - IFNG KRKRP, unmasked) (other)
heavy: EVQLLESGGGLVQPGGSLRLSCAASGFTFSSYAMSWVRQAPGKGLEWVSAIIGSGASTYYADSVKGRFTISRDNSKNTLYLQMNSLRAEDTAVYYCAKGWFGGFNYWGQGTLVTVSSASTKGPSVFPLAPSSKSTSGGTAALGCLVKDYFPEPVTVSWNSGALTSGVHTFPAVLQSSGLYSLSSVVTVPSSSLGTQTYICNVNHKPSNTKVDKKV[human IgG1 Fc with changes skipped]GGGGSGGGGSGGGGSGGGGSGGGGSGGGGGQDPYVKEAENLKKYFNAGHSDVADNGTLFLGILKNWKEESDRKIMQSQIVSFYFKLFKNFKDDQSIQKSVETIKEDMNVKFFNSNKKKRDDFEKLTNYSVTDLNVQRKAIHELIQVMAELSPAAKTGKRKRP
light: B1 light

Kd [1]: 1420 nM | Kd [2]: 1730 nM
B5: P1AF9471 (anti-FAP 4B9 IgG-IFNG, C-terminus AKTGSSKRP) (other)
heavy: EVQLLESGGGLVQPGGSLRLSCAASGFTFSSYAMSWVRQAPGKGLEWVSAIIGSGASTYYADSVKGRFTISRDNSKNTLYLQMNSLRAEDTAVYYCAKGWFGGFNYWGQGTLVTVSSASTKGPSVFPLAPSSKSTSGGTAALGCLVKDYFPEPVTVSWNSGALTSGVHTFPAVLQSSGLYSLSSVVTVPSSSLGTQTYICNVNHKPSNTKVDKKV[human IgG1 Fc with changes skipped]GGGGSGGGGSGGGGSQDPYVKEAENLKKYFNAGHSDVADNGTLFLGILKNWKEESDRKIMQSQIVSFYFKLFKNFKDDQSIQKSVETIKEDMNVKFFNSNKKKRDDFEKLTNYSVTDLNVQRKAIHELIQVMAELSPAAKTGSSKRP
light: B1 light
notes: Antibody-cytokine fusion, IgG1 P329G LALA, (G4S)3 linker; S in positions 1 and 2 of KRKR

Kd [1]: 284 nM | Kd [2]: 564 nM
B6: P1AF9478 (anti-FAP 4B9 IgG-IFNG, P in position 4 of KRKR) (other)
heavy: EVQLLESGGGLVQPGGSLRLSCAASGFTFSSYAMSWVRQAPGKGLEWVSAIIGSGASTYYADSVKGRFTISRDNSKNTLYLQMNSLRAEDTAVYYCAKGWFGGFNYWGQGTLVTVSSASTKGPSVFPLAPSSKSTSGGTAALGCLVKDYFPEPVTVSWNSGALTSGVHTFPAVLQSSGLYSLSSVVTVPSSSLGTQTYICNVNHKPSNTKVDKKV[human IgG1 Fc with changes skipped]GGGGSGGGGSGGGGSQDPYVKEAENLKKYFNAGHSDVADNGTLFLGILKNWKEESDRKIMQSQIVSFYFKLFKNFKDDQSIQKSVETIKEDMNVKFFNSNKKKRDDFEKLTNYSVTDLNVQRKAIHELIQVMAELSPAAKTGKRKPP
light: B1 light
notes: Antibody-cytokine fusion, IgG1 P329G LALA, (G4S)3 linker; also called KRKPP
